{
  "source": "the supplement of paper PMC8728848",
  "experiment_in_all_cases": "glycan array binding signal (z-score within array); higher = stronger binding",
  "settings_in_all_cases": "glycan notation: IUPAC condensed, linker removed",
  "key": {"[1]": {"biological_target": "Fuc(a1-2)Gal", "in_short": "(§1)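 From the Consortium for Functional Glycomics database, 3228 arrays were curated, keeping only those whose protein sequence was available. Binding is given as a within-array Z-score averaged across arrays sharing a protein sequence and across linkers. Negative Z-scores can be read as non-binding.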"}, "[2]": {"biological_target": "Fuc(a1-2)Gal(b1-3)GalNAc", "in_short": "as §1"}, "[3]": {"biological_target": "Fuc(a1-2)Gal(b1-3)GalNAc(a1-3)[Fuc(a1-2)]Gal(b1-4)Glc", "in_short": "as §1"}, "[4]": {"biological_target": "Fuc(a1-2)Gal(b1-3)GalNAc(a1-3)[Fuc(a1-2)]Gal(b1-4)GlcNAc", "in_short": "as §1"}, "[5]": {"biological_target": "Fuc(a1-2)Gal(b1-3)GalNAc(b1-3)Gal", "in_short": "as §1"}, "[6]": {"biological_target": "Fuc(a1-2)Gal(b1-3)GalNAc(b1-3)Gal(a1-4)Gal(b1-4)Glc", "in_short": "as §1"}, "[7]": {"biological_target": "Fuc(a1-2)Gal(b1-3)GalNAc(b1-4)[Neu5Ac(a2-3)]Gal(b1-4)Glc", "in_short": "as §1"}, "[8]": {"biological_target": "Fuc(a1-2)Gal(b1-3)GlcNAc", "in_short": "as §1"}, "[9]": {"biological_target": "Fuc(a1-2)Gal(b1-3)GlcNAc(b1-2)Man(a1-3)[Fuc(a1-2)Gal(b1-3)GlcNAc(b1-2)Man(a1-6)]Man(b1-4)GlcNAc(b1-4)GlcNAc", "in_short": "as §1"}, "[10]": {"biological_target": "Fuc(a1-2)Gal(b1-3)GlcNAc(b1-2)Man(a1-3)[Fuc(a1-2)Gal(b1-3)GlcNAc(b1-2)Man(a1-6)]Man(b1-4)GlcNAc(b1-4)[Fuc(a1-6)]GlcNAc", "in_short": "as §1"}, "[11]": {"biological_target": "Fuc(a1-2)Gal(b1-3)GlcNAc(b1-3)Gal(b1-4)Glc", "in_short": "as §1"}, "[12]": {"biological_target": "Fuc(a1-2)Gal(b1-3)GlcNAc(b1-3)GalNAc", "in_short": "as §1"}, "[13]": {"biological_target": "Fuc(a1-2)Gal(b1-3)GlcNAc(b1-3)[Fuc(a1-2)Gal(b1-3)GlcNAc(b1-6)]GalNAc", "in_short": "as §1"}, "[14]": {"biological_target": "Fuc(a1-2)Gal(b1-3)GlcNAc(b1-3)[Fuc(a1-3)[Gal(b1-4)]GlcNAc(b1-6)]Gal(b1-4)Glc", "in_short": "as §1"}, "[15]": {"biological_target": "Fuc(a1-2)Gal(b1-3)GlcNAc(b1-3)[Gal(b1-4)GlcNAc(b1-6)]Gal(b1-4)Glc", "in_short": "as §1"}, "[16]": {"biological_target": "Fuc(a1-2)Gal(b1-3)GlcNAc(b1-3)[Neu5Ac(a2-6)Gal(b1-4)GlcNAc(b1-6)]Gal(b1-4)Glc", "in_short": "as §1"}, "[17]": {"biological_target": "Fuc(a1-2)Gal(b1-3)GlcNAc6S", "in_short": "as §1"}, "[18]": {"biological_target": "Fuc(a1-2)Gal(b1-3)[Fuc(a1-4)]GlcNAc", "in_short": "as §1"}, "[19]": {"biological_target": "Fuc(a1-2)Gal(b1-3)[Fuc(a1-4)]GlcNAc(b1-2)Man(a1-3)[Fuc(a1-2)Gal(b1-3)[Fuc(a1-4)]GlcNAc(b1-2)Man(a1-6)]Man(b1-4)GlcNAc(b1-4)GlcNAc", "in_short": "as §1"}, "[20]": {"biological_target": "Fuc(a1-2)Gal(b1-3)[Fuc(a1-4)]GlcNAc(b1-2)Man(a1-6)[Fuc(a1-2)Gal(b1-3)[Fuc(a1-4)]GlcNAc(b1-2)Man(a1-3)]Man(b1-4)GlcNAc(b1-4)[Fuc(a1-6)]GlcNAc", "in_short": "as §1"}, "[21]": {"biological_target": "Fuc(a1-2)Gal(b1-3)[Fuc(a1-4)]GlcNAc(b1-3)[Fuc(a1-3)[Gal(b1-4)]GlcNAc(b1-6)]Gal(b1-4)Glc", "in_short": "as §1"}, "[22]": {"biological_target": "Fuc(a1-2)Gal(b1-3)[Fuc(a1-4)]GlcNAc(b1-3)[Gal(b1-4)GlcNAc(b1-6)]Gal(b1-4)Glc", "in_short": "as §1"}, "[23]": {"biological_target": "Fuc(a1-2)Gal(b1-4)Glc", "in_short": "as §1"}, "[24]": {"biological_target": "Fuc(a1-2)Gal(b1-4)Glc6S", "in_short": "as §1"}, "[25]": {"biological_target": "Fuc(a1-2)Gal(b1-4)GlcNAc", "in_short": "as §1"}, "[26]": {"biological_target": "Fuc(a1-2)Gal(b1-4)GlcNAc(b1-2)Man", "in_short": "as §1"}, "[27]": {"biological_target": "Fuc(a1-2)Gal(b1-4)GlcNAc(b1-2)Man(a1-3)[Fuc(a1-2)Gal(b1-4)GlcNAc(b1-2)Man(a1-6)]Man(b1-4)GlcNAc(b1-4)GlcNAc", "in_short": "as §1"}, "[28]": {"biological_target": "Fuc(a1-2)Gal(b1-4)GlcNAc(b1-2)Man(a1-3)[Fuc(a1-2)Gal(b1-4)GlcNAc(b1-2)Man(a1-6)]Man(b1-4)GlcNAc(b1-4)[Fuc(a1-6)]GlcNAc", "in_short": "as §1"}, "[29]": {"biological_target": "Fuc(a1-2)Gal(b1-4)GlcNAc(b1-2)[Fuc(a1-2)Gal(b1-4)GlcNAc(b1-4)]Man(a1-3)[Fuc(a1-2)Gal(b1-4)GlcNAc(b1-2)Man(a1-6)]Man(b1-4)GlcNAc(b1-4)GlcNAc", "in_short": "as §1"}, "[30]": {"biological_target": "Fuc(a1-2)Gal(b1-4)GlcNAc(b1-3)Gal(b1-4)GlcNAc", "in_short": "as §1"}},
  "note": "The list shows a part of the results.",
  "data": [
    {"binder": "Morniga (Morus nigra) (protein) MAGTSTNTQTTGTSQTVEVGLWGGPGGNAWDDGSYTGIREINLSHGDAIGAFSVIYDLNGQPFTGPTHPGNEPSFKTVKITLDFPNEFLVSVSGYTGVLPRLATGKDVIRSLTFKTNKKTYGPYGKEEGTPFSLPIENGLIVGFKGRSGFVVDAIGVHLS", "values": [
      {"measurement": "glycan array binding signal (z-score)", "setting": "[1]", "result": -0.331},
      {"measurement": "glycan array binding signal (z-score)", "setting": "[2]", "result": -0.283},
      {"measurement": "glycan array binding signal (z-score)", "setting": "[3]", "result": -0.335},
      {"measurement": "glycan array binding signal (z-score)", "setting": "[4]", "result": -0.33},
      {"measurement": "glycan array binding signal (z-score)", "setting": "[5]", "result": -0.345},
      {"measurement": "glycan array binding signal (z-score)", "setting": "[6]", "result": -0.347},
      {"measurement": "glycan array binding signal (z-score)", "setting": "[7]", "result": -0.335},
      {"measurement": "glycan array binding signal (z-score)", "setting": "[8]", "result": -0.339},
      {"measurement": "glycan array binding signal (z-score)", "setting": "[9]", "result": 0.037},
      {"measurement": "glycan array binding signal (z-score)", "setting": "[10]", "result": -0.173},
      {"measurement": "glycan array binding signal (z-score)", "setting": "[11]", "result": -0.338},
      {"measurement": "glycan array binding signal (z-score)", "setting": "[12]", "result": -0.32},
      {"measurement": "glycan array binding signal (z-score)", "setting": "[13]", "result": -0.326},
      {"measurement": "glycan array binding signal (z-score)", "setting": "[14]", "result": -0.342},
      {"measurement": "glycan array binding signal (z-score)", "setting": "[15]", "result": -0.337},
      {"measurement": "glycan array binding signal (z-score)", "setting": "[16]", "result": -0.335},
      {"measurement": "glycan array binding signal (z-score)", "setting": "[17]", "result": -0.321},
      {"measurement": "glycan array binding signal (z-score)", "setting": "[18]", "result": -0.278},
      {"measurement": "glycan array binding signal (z-score)", "setting": "[19]", "result": -0.19},
      {"measurement": "glycan array binding signal (z-score)", "setting": "[20]", "result": -0.228},
      {"measurement": "glycan array binding signal (z-score)", "setting": "[21]", "result": -0.325},
      {"measurement": "glycan array binding signal (z-score)", "setting": "[22]", "result": -0.269},
      {"measurement": "glycan array binding signal (z-score)", "setting": "[23]", "result": -0.341},
      {"measurement": "glycan array binding signal (z-score)", "setting": "[24]", "result": -0.332},
      {"measurement": "glycan array binding signal (z-score)", "setting": "[25]", "result": -0.333},
      {"measurement": "glycan array binding signal (z-score)", "setting": "[26]", "result": -0.327},
      {"measurement": "glycan array binding signal (z-score)", "setting": "[27]", "result": 2.24},
      {"measurement": "glycan array binding signal (z-score)", "setting": "[28]", "result": 0.412},
      {"measurement": "glycan array binding signal (z-score)", "setting": "[29]", "result": -0.149},
      {"measurement": "glycan array binding signal (z-score)", "setting": "[30]", "result": -0.346}
    ]}
  ]
}
